Assay results: publication PMC4336329 (PLoS ONE, 2015)
In all, about 310,000 compounds went through this assay and about 14,000 (4.5%) showed an effect of 50% or more. The effect is printed as a negative number. Some of the results follow.

Target: human ether-à-go-go-related gene (hERG) potassium channel (human, UniProt Q12809)
Experiment: primary screen, population patch clamp on CHO cells stably expressing hERG
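Further: peak tail current of the secondary pulse compared with the same well before compound.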

human ether-à-go-go-related gene (hERG) potassium channel, sequence (Q12809 whole entry, looked up): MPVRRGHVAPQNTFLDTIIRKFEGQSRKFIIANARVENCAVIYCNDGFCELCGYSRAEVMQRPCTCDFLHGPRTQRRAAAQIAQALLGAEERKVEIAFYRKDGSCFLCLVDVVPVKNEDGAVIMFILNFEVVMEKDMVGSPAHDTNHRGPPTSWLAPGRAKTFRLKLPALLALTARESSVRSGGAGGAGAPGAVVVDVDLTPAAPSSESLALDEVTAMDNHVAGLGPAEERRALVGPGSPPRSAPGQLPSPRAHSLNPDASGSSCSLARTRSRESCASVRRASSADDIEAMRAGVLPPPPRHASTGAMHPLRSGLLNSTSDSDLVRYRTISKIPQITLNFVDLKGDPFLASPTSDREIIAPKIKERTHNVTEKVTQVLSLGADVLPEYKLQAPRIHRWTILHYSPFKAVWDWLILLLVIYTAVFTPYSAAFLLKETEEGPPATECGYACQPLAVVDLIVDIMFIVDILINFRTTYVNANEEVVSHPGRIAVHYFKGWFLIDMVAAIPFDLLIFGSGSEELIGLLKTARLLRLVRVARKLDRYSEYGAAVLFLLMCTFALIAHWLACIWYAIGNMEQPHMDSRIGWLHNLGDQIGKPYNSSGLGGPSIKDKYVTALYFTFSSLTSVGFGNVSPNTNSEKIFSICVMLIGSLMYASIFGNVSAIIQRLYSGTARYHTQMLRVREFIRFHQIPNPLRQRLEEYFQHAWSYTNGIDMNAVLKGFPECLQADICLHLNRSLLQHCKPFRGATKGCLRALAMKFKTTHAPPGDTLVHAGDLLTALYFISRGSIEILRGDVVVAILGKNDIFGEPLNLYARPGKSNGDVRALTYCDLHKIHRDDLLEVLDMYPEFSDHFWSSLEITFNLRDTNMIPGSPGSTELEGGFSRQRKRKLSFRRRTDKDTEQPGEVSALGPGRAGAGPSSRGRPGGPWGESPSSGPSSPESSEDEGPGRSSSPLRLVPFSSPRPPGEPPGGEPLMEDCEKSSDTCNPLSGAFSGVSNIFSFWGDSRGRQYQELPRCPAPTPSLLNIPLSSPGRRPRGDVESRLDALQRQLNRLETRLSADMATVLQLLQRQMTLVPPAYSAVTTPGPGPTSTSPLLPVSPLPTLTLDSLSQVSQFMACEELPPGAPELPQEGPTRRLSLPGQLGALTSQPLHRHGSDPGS

| Compound | hERG current change (%, negative = inhibition) at 10uM [%] |
| --- | --- |
| Cc1ccc(Cl)cc1NC(=O)C1CCCN1S(=O)(=O)c1ccc(-c2ccc(=O)[nH]n2)s1 (centres unmarked) | -65.4 |
| O=C(c1cccc(NS(=O)(=O)c2ccc(F)cc2)c1)N1CCN(c2ccccc2)CC1 | -22.7 |
| Cc1nc2sc(C(c3ccc(F)cc3)N3CCOCC3)c(O)n2n1 (centres unmarked) | 9.62 |
| Cl.N=c1ccn(Cc2cccc(F)c2)cc1 | 16.4 |
| CN(C)CC#CCC(O)(c1ccccc1)C1CCCCC1 (centres unmarked) | 3.32 |
| Cc1cccc(COc2coc(CN3CCN(C(=O)c4ccco4)CC3)cc2=O)c1 | -50.7 |
| O=C(Cc1ccc(S(=O)(=O)N2CCOCC2)s1)NCCC(c1ccccc1)c1ccccc1 | -54.8 |
| CC(C)CC(=O)Nc1nnc(SCC(=O)NCC2CCCO2)s1 (centres unmarked) | 0.385 |
| CNC(=O)c1ccc(NC(=O)CC23CC4CC(CC(C4)C2)C3)cc1 | 17.9 |
| COCC(=O)Nc1cc(OC)c(Cl)cc1OC | -1.61 |
| CCOc1ccc(N(C(C)C(=O)N2CCCC2)S(C)(=O)=O)cc1 (centres unmarked) | 17.5 |
| CSc1nc2nccc(-c3ccc(-c4ccccc4)cc3)n2n1 | 8.18 |
| Cc1ccc(N2C(=O)C3C4C=CC(CNC(=S)Nc5ccc(F)cc5)(O4)C3C2=O)cc1 (centres unmarked) | -13 |
| CCc1ccc(NC(=O)CSc2nc(=O)n3cc(C)ccc3n2)cc1 | -24.6 |
| O=C(NCCc1ccc(Cl)cc1)c1cc2ccccn2n1 | -4.22 |
| COc1cccc(CNC(=O)Cn2ncc3c(=O)oc4ccccc4c32)c1 | 0.961 |
| COC(=O)C(C)Sc1nc2c(cnn2-c2ccc(C)cc2)c(=O)[nH]1 (centres unmarked) | 3.83 |
| CCOC(=O)c1c(NC(=O)c2ccccc2Cl)sc2c1CCc1ccccc1-2 | 35.3 |
| COc1ccc(-c2[nH]ncc2CN(C)Cc2cnccn2)c(OC)c1 | 14 |

| Compound | hERG current change (%, negative = inhibition) at 10uM [%] |
| --- | --- |
| CCN(CC)CC(=O)Nc1c(C)cccc1C.Cl.O | -9.9 |
| CCCCn1c2ccccc2c2cc(CC(N)=O)ccc21 | 0.491 |
| Cc1ccc(Cl)cc1NC(=O)COC(=O)C1CCCC1 | -75.8 |
| COc1ccc2cc(C3CC(c4ccco4)=NN3S(C)(=O)=O)c(Cl)nc2c1 (centres unmarked) | -48 |
| O=C(Nc1ccc([N+](=O)[O-])cn1)c1cccnc1 | 9.39 |
| Cc1c(C(C)(C)O)[nH]c2ccc(C(F)(F)F)cc12 | -10.9 |
| O=C(NCc1cccnc1)c1cccnc1Sc1ccc(Cl)cc1 | -24.6 |
| N#CC1(NC(=O)COC(=O)c2cc([N+](=O)[O-])ccc2N2CCCC2)CCCCC1 | -29.8 |
| Cn1c(=O)c2[nH]c(CCCC(=O)O)nc2n(Cc2ccccc2)c1=S | 16.1 |
| COc1cc(NC(=S)NCCCN2CCOCC2)c(OC)cc1NC(=O)c1ccco1 | -3.59 |
| Cc1cc(C(=O)N/N=C/c2c(CO)cnc(C)c2O)c2ccccc2n1 | 32.1 |
| CCOC(=O)c1c(NC(=O)CCl)sc(CN(C)C)c1-c1ccccc1.Cl | -24.9 |
| CC1CCN(C(=O)C2CCC(CNc3c(N4CCCCC4)c(=O)c3=O)CC2)CC1 (centres unmarked) | 9.39 |
| COCc1ccc(C(=O)N2CCCC(C(=O)c3ccc(SC)cc3)C2)o1 (centres unmarked) | -41.6 |
| C[C@@]12CC[C@H]3OC(=O)C=C3C1CC[C@@]13CC(CCC12)[C@](CO)(O[C@H]1O[C@H](CO)[C@@H](O)[C@H](O)[C@H]1O)C3 (some centres unmarked) | 20.3 |
| Cc1sc2nc(CSC(C)C(=O)N3CCOCC3)[nH]c(=O)c2c1C (centres unmarked) | 20 |
| S=c1[nH]nc(-c2ccco2)n1/N=C/C=C/c1ccccc1 | 16.7 |
| C=CCn1c(=S)[nH]c2cc(-c3ccccc3)sc2c1=O | 23.4 |
| CC(=O)Nc1ccc(Nc2nc(C)nc3c2oc2ccccc23)cc1 | 13.4 |

| Compound | hERG current change (%, negative = inhibition) at 10uM [%] |
| --- | --- |
| CC(C)(C)c1ccc(OCC(=O)Nc2cccc(S(=O)(=O)NC3=NCCCCC3)c2)cc1 | -18.9 |
| CN(C)c1ccc(NC(=O)CN2C(=O)CN=C(c3ccccc3)c3ccccc32)cc1 | -0.822 |
| COc1ccc(OC)c(S(=O)(=O)NC(C)c2cnn(-c3ccccn3)c2C)c1 (centres unmarked) | 8.14 |
| CCCS(=O)(=O)C/C(N)=N/OC(=O)c1ccc(Cl)cc1 | -5.58 |
| COc1ccc(/C=C2/C(=O)NC(=S)N(C3CC3)C2=O)cc1CN1C(=O)c2ccccc2C1=O | -8.62 |
| COc1ccccc1-c1c(C)nn2c(N3CCN(c4ccccc4OC)CC3)cc(C)nc12 | 3.75 |
| CCN(CC)C(=O)CSc1nc2c(sc(=S)n2-c2ccccc2)c(=O)[nH]1 | 16 |
| CNC(=O)Oc1ccc2c(c1)[C@]1(C)CCN(C)[C@@H]1N2C | -2.51 |
| C=CCOc1c(Br)cc(CNc2ccc(NC(=O)C(C)C)c(OC)c2)cc1OCC | -9.97 |
| c1ccc(-c2nc(-c3ccccn3)nc(-c3ccccn3)n2)nc1 | -2.75 |
| O=C(NC(Cc1ccccc1)C(=O)NCc1ccccn1)c1ccco1 (centres unmarked) | 3.3 |
| CCOc1ccc(CN2CCN(Cc3[nH]c4ccccc4c3C)CC2CCO)cc1 (centres unmarked) | -75.8 |
| O=C(O)/C=C/c1cccnc1 | -0.782 |
| NS(=O)(=O)c1ccc(CCNC(=O)c2ccc(Cn3c(=O)[nH]c4ccccc4c3=O)cc2)cc1 | -3.26 |
| COc1ccc(-c2onc3ccc(Cl)cc23)cc1 | 19.5 |
| CCS(=O)(=O)N1CCC(C(=O)NCc2ccccn2)CC1 | -8.31 |
| COc1ccccc1C(=O)NCc1ccccc1 | 12.8 |
| CCCOc1c(Br)cc(C(N)=O)cc1OCC | -5.13 |
